Over roughly 33,000 sequences, “E-score (-0.5 to 0.5)” has its median near -0.013; the highest 2% begin near 0.3. This is one part of the list.
Each sequence was assayed against T1, Msn1 (UniProt P22148) (assay: PBM E-score (8-mer binding enrichment) (E-score (-0.5 to 0.5)); higher = stronger / more preferred TF binding; most listed sequences are background and not binding sites). Conditions: protein concentration: 200 nM; construct: GST-full length.
T1 sequence: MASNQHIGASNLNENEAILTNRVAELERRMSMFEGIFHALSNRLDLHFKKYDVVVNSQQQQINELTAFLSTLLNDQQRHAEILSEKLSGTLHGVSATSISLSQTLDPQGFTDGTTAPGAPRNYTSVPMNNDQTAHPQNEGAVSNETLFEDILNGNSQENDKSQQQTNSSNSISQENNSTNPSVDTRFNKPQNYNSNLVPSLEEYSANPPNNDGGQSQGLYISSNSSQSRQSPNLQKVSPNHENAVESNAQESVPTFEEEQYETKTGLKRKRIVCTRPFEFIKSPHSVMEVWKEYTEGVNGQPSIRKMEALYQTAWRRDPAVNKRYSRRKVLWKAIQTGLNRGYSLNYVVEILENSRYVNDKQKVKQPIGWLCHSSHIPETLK
Method in brief: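 Bound GST-tagged yeast transcription factors, applied at about 100-200 nM to double-stranded universal all-10-mer Agilent arrays, were detected with fluorescent anti-GST. Scans were normalised with masliner. A modified Wilcoxon-Mann-Whitney statistic, the E-score, was assigned to each ungapped eight-base word pooled with its reverse complement by the Universal PBM Analysis Suite.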

Row | Sequence | PBM E-score
1 | AGAAATCG | 0.0314
2 | GACTCATA | -0.0448
3 | AGTCTCGA | 0.0272
4 | CTTCTCCC | -0.335
5 | GTCCAGCA | 0.162
6 | CGGTGCTC | -0.124
7 | ATAATACG | 0.171
8 | ACATACTG | 0.0194
9 | CACTCACG | -0.115
10 | CAGGCCCG | -0.157
11 | AACGGAAA | 0.234
12 | CCTAATCG | 0.135
13 | CTTTTGAA | 0.0301
14 | CTTGGAGA | -0.00816
15 | CGCGAAAA | 0.191
16 | AGTTAAGC | -0.0654
17 | ACTAACAC | 0.0501
18 | AAGTCTCA | 0.13
19 | AACGCATC | -0.105
20 | CTAATGAA | 0.107
21 | AAAGATAG | -0.095
22 | CTGGTCAA | -0.0575
23 | CTAGACCA | -0.0818
24 | AAGCGGCC | -0.123
25 | CGGCCTGA | -0.216

Row | Sequence | PBM E-score
26 | CCGTACCG | -0.217
27 | ATTTAGAA | 0.208
28 | ATATTATA | 0.0943
29 | ATACACCG | 0.0396
30 | ACGGAAGA | 0.0866
31 | CCGGTCTA | -0.229
32 | AACCATTA | 0.026
33 | AGGAGCTC | -0.149
34 | AGACCATC | -0.216
35 | GAGGATGA | -0.243
36 | CAGGTCTA | 0.103
37 | CACTCCTC | -0.234
38 | AGCTCCGG | -0.0221
39 | CTACGACC | -0.119
40 | GACAAAGA | 0.404
41 | GGCACAAA | -0.113
42 | CAGTGTAA | 0.118
43 | GGACCCAC | -0.0704
44 | CACGAGCG | -0.228
45 | TAAGACCA | -0.13
46 | GGTCTAAA | -0.0883
47 | CTCCACCA | -0.256
48 | ACATACGG | 0.182
49 | ACTTTCTA | 0.0612
50 | GAAACAAC | -0.0343

Row | Sequence | PBM E-score
51 | CGAGCTGC | -0.135
52 | GGACCAGA | -0.0855
53 | GGGGGCTA | -0.406
54 | AGAACTGG | -0.123
55 | AACGACCA | 0.0221
56 | AATACTGA | -0.0611
57 | AATGGCAT | 0.171
58 | GGAGGACA | 0.4
59 | ATGCTTCA | -0.133
60 | TACAGGGA | -0.145
61 | AAGCGACC | 0.0492
62 | CGTCGGAC | 0.141
63 | CAGCTTAC | 0.0355
64 | AAGTCCAA | 0.275
65 | ATCGTACC | -0.189
66 | GGTAGGCA | -0.105
67 | AATTTCCA | 0.188
68 | CACGCAAA | -0.119
69 | GGGACTAA | 0.196
70 | AAAGGTGC | -0.0567
71 | AGCTGCTC | -0.142
72 | CGAGTTGA | 0.0114
73 | GCACGGAA | 0.0357
74 | GCGCATCA | -0.0995
75 | AGGTAGAA | 0.0304

Row | Sequence | PBM E-score
76 | AAAAGGGC | -0.0761
77 | CGTGCTGC | -0.144
78 | AATAGATG | 0.0765
79 | GTTAGTTA | 0.201
80 | GCCGAGCC | -0.0652
81 | ACACTCGA | 0.0471
82 | CACTGTCC | 0.144
83 | GTACTTTA | 0.099
84 | CCCAGCCG | -0.258
85 | AACTGATA | 0.121
86 | CTGCAACC | -0.16
87 | CTCTCCGC | -0.0603
88 | CATTTGAA | 0.0686
89 | GGACCTTA | -0.0966
90 | CGTACTAG | 0.151
91 | CCCTAGGC | -0.139
92 | TAGTGAAA | -0.0432
93 | AGAGGCGG | -0.22
94 | ATGACCGA | -0.047
95 | CTACCCGA | -0.0469
96 | AAAAGTTC | 0.142
97 | GGTACCAA | 0.0165
98 | ATTTTCTA | 0.279
99 | AAACTCTG | 0.253
100 | CGGGCACC | -0.217

Row | Sequence | PBM E-score
101 | CCCTTGCG | -0.22
102 | TATACCCA | -0.089
103 | ATGCGTAA | 0.039
104 | CGCAAGTC | -0.0106
105 | AGTGTATC | 0.0379
106 | AGGGTCGG | -0.0831
107 | CGGGTATA | 0.181
108 | AGAGCACT | -0.0658
109 | CATAAGGG | -0.127
110 | CCGCTGGC | -0.164
111 | GAAACACC | -0.05
112 | AGCCTATA | 0.0926
113 | GCCCACTA | -0.101
114 | AGTCCCCG | -0.0625
115 | AGTGAGAT | -0.092
116 | AATTGATC | -0.0771
117 | GGATCTAC | -0.126
118 | ATACAAGA | 0.0344
119 | AACTGACC | 0.0313
120 | CGATGTAA | -0.00414
121 | CTCCATCC | -0.246
122 | AACAACCA | 0.19
123 | GGTATGGA | 0.0803
124 | CATCACGG | -0.0528
125 | ACGCGTAG | 0.052

Row | Sequence | PBM E-score
126 | GACTAGGC | -0.0873
127 | CTAAGCAC | 0.00334
128 | CCCAATGA | -0.113
129 | AAGGTGCT | 0.00429
130 | TCGAAAGA | 0.048
131 | CTCCCTTA | -0.0722
132 | CCCATGTC | 0.316
133 | CGGGCCAC | -0.219
134 | CCATCCTA | -0.0356
135 | ACTAGTGA | -0.00819
136 | ATTAACCC | 0.156
137 | TAGAATCA | -0.00648
138 | AGTAGCGC | -0.0883
139 | GCTTGGAC | 0.22
140 | GGTCGCCA | -0.287
141 | GCAGCCGC | -0.211
142 | CTAAATTA | 0.144
143 | AAAACTTG | 0.138
144 | GCCCAAGC | -0.135
145 | CACGGGAC | 0.0624
146 | AATGCGAC | 0.0714
147 | AGTGATGA | -0.182
148 | GTGAGTTA | -0.0625
149 | CGCGGGAA | 0.0204
150 | GGAGATCA | -0.0623

Row | Sequence | PBM E-score
151 | CAACTGAA | 0.00402
152 | ATGGGGCA | -0.119
153 | CCGCCGAA | 0.0787
154 | ACCCAGGC | -0.0539
155 | CTCGCAAG | -0.0378
156 | AGTATTAA | 0.175
157 | ACATCTAT | 0.266
158 | CTCCAGAA | -0.14
159 | AACAAGTC | 0.103
160 | CTCGGGGA | 0.192
161 | AAGACATA | 0.382
162 | GGACATAA | 0.477
163 | AGCACCCC | -0.278
164 | AGGCTAAC | -0.0211
165 | CGGCGGTC | -0.239
166 | CCTCACTC | -0.0306
167 | CAACACCC | -0.176
168 | GTGTTGTA | -0.0638
169 | CTCGCCCC | -0.302
170 | ATAATAAG | 0.127
171 | TAGTAAGA | 0.153
172 | AACCGGCT | -0.0856
